The values below come from the antibiotic and cytotoxicity screens of Wong et al. (2023).

Each structure is given as a SMILES string. Some of the results follow.

For the first experiment, the system named is HSkMC (human skeletal muscle cells). The experiment can be described thus: cytotoxicity call (relative viability < 0.9). As to conditions: 10 µM.
`Cc1noc(C)c1S(=O)(=O)N(C)C[C@@H]1Oc2ccc(NC(=O)Nc3ccc4c(c3)OCO4)cc2C(=O)N([C@@H](C)CO)C[C@@H]1C`: the cytotoxicity call was “inactive”. Same read-out and setting: the result for `Cc1ccc(-c2ccc3c(c2)O[C@H](CN(C)C(=O)CN(C)C)[C@@H](C)CN([C@@H](C)CO)S3(=O)=O)cc1` reads “inactive”; that for `C[C@H](CO)N1C[C@H](C)[C@@H](CN(C)S(=O)(=O)c2ccccc2)OCCCC[C@H](C)Oc2ccc(NC(=O)Nc3ccc4c(c3)OCO4)cc2C1=O`, “inactive”. In the case of `Cc1noc(C)c1NC(=O)N(C)C[C@H]1Oc2cc(C#CCN(C)C)ccc2S(=O)(=O)N([C@@H](C)CO)C[C@@H]1C`, the cytotoxicity call was “inactive”.

For the compound `COc1ccc(NC(=O)N(C)C[C@H]2Oc3ccc(NC(=O)Nc4cccc5ccccc45)cc3CC(=O)N([C@@H](C)CO)C[C@H]2C)cc1`, the cytotoxicity call is “inactive”. Still for that read-out and setting: the result for `COc1ccccc1NC(=O)N(C)C[C@H]1OCc2ccccc2-c2c(n(C)c3ccccc23)C(=O)N([C@@H](C)CO)C[C@H]1C` reads “inactive”; that for `CNc1ccc(-c2nc(N3CCOCC3)c3sc(CN(C)c4ncc(C(=O)NO)cn4)cc3n2)cn1`, “active”. On the same count and under the same terms, the result for `COc1ccc(CN(C)C[C@H]2OCCCC[C@H](C)Oc3ccc(NC(=O)c4ccncc4)cc3C(=O)N([C@@H](C)CO)C[C@@H]2C)cc1` reads “inactive”. On the same count and under the same terms, next, `CCS(=O)(=O)Nc1ccc2c(c1)C(=O)N(C)C[C@H](OC)[C@H](C)CN(Cc1nccs1)[C@@H](C)CO2`: “inactive”; `C[C@H](N)C(=O)N[C@@H](C)P(=O)(O)O`: “inactive”.

Another experiment relates to HepG2. Kind of experiment: cytotoxicity call (relative viability < 0.9). Conditions: 10 µM.
For `COc1ccc(CN(C)C[C@@H]2OCCCC[C@H](C)Oc3ccc(NS(=O)(=O)c4c(C)noc4C)cc3C(=O)N([C@H](C)CO)C[C@@H]2C)cc1`, the cytotoxicity call is “inactive”.

For the compound `C[C@@H]1CN([C@@H](C)CO)C(=O)c2cc(NC(=O)Cc3ccccc3)ccc2O[C@@H]1CN(C)Cc1ccc(-c2ccccc2)cc1`, the cytotoxicity call was “active”. On to `C[C@H](CO)N1C[C@H](C)[C@H](CN(C)Cc2ccc(-c3ccccc3)cc2)Oc2ccc(NC(=O)Nc3cccc4ccccc34)cc2CC1=O`, for which the cytotoxicity call is “inactive”. For `C[C@@H]1CCCCO[C@H](CN(C)C(=O)Nc2ccc3c(c2)OCO3)[C@H](C)CN([C@@H](C)CO)C(=O)c2cc(NC(=O)c3ccncc3)ccc2O1`, the cytotoxicity call is “inactive”.

Regarding `NCc1ccc(-c2ccccc2O)cc1`, the cytotoxicity call was “inactive”. Turning to `C[C@@H]1CN([C@@H](C)CO)C(=O)c2cc(NC(=O)Cn3cnnn3)ccc2O[C@@H]1CN(C)S(C)(=O)=O`, the cytotoxicity call is “inactive”.

`C[C@H]1CCCCO[C@@H](CN(C)Cc2ccncc2)[C@@H](C)CN([C@@H](C)CO)C(=O)c2cc(NC(=O)c3ccccc3)ccc2O1`: the cytotoxicity call is “inactive”. On the same count and under the same terms, next, `COc1ccc(NC(=O)N(C)C[C@H]2Oc3ccc(NC(=O)CCN4CCOCC4)cc3CC(=O)N([C@@H](C)CO)C[C@H]2C)cc1`: “inactive”. For `C[C@@H]1CN([C@H](C)CO)C(=O)Cc2cc(N(C)C)ccc2O[C@H]1CN(C)S(=O)(=O)c1cn(C)cn1`, the cytotoxicity call is “inactive”. Same read-out and setting: next, `C[C@H]1CCCCO[C@H](CN(C)S(=O)(=O)c2ccc(Cl)cc2)[C@@H](C)CN([C@@H](C)CO)C(=O)c2cc(NS(=O)(=O)c3cccs3)ccc2O1`: “inactive”. The same measure, in the same setting: next, `O=C(C[C@@H]1CC[C@@H]2[C@H](COC[C@H](O)CN2C(=O)Nc2ccc(Cl)cc2)O1)NCCc1ccncc1`: “inactive”. On the same count and under the same terms, next, `CC(C)NC(=O)N(C)C[C@H]1Oc2ccc(NC(=O)Cn3cnnn3)cc2CC(=O)N([C@H](C)CO)C[C@H]1C`: “inactive”; `C[C@H]1CCCCO[C@H](CN(C)C(=O)Nc2ccc(F)cc2)[C@@H](C)CN([C@@H](C)CO)C(=O)c2cc(NC(=O)c3ccccc3)ccc2O1`: “inactive”; `CC(=O)N(C)C[C@@H]1Oc2ncc(C#C[C@H](C)O)cc2C(=O)N([C@@H](C)CO)C[C@H]1C`: “inactive”. Take `C[C@@H]1CCCCO[C@H](CN(C)S(=O)(=O)c2ccc(Cl)cc2)[C@@H](C)CN([C@H](C)CO)C(=O)c2cc(NC(=O)Cc3ccccc3)ccc2O1`: the cytotoxicity call is “active”. Same read-out and setting: next, `C[C@@H]1CN([C@H](C)CO)C(=O)c2cc(NS(=O)(=O)c3ccc(Cl)cc3)ccc2O[C@@H]1CN(C)Cc1ccc(C(=O)Nc2ccccc2N)cc1`: “inactive”; `Cc1cc(C(=O)Nc2cccc3c2O[C@H](CN(C)S(=O)(=O)c2ccc(F)cc2)[C@@H](C)CN([C@H](C)CO)C3=O)n(C)n1`: “inactive”; `C[C@@H]1CCCCO[C@H](CN(C)C(=O)Nc2ccc(C(F)(F)F)cc2)[C@@H](C)CN([C@@H](C)CO)C(=O)c2cc(NC(=O)NC3CCCCC3)ccc2O1`: “inactive”.
